Test results from the supplement of paper PMC4967469.

What was measured:
Test in all cases: Viability of human cancer cell lines after 72 h of drug (GDSC screen)
PF-4708671 = compound: CCc1cncnc1N1CCN(Cc2nc3ccc(C(F)(F)F)cc3[nH]2)CC1 [PF-4708671]; conditions: top dose 10 µM; top dose inferred
Method: (§1)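 Human cancer cell lines in 384-well plates, medium with 10% serum, drug for 72 h over a 256-fold dose range (nine 2-fold or five 4-fold steps up to the top dose). Adherent lines were fixed and stained with the nucleic acid dye Syto60, suspension lines read with resazurin; signal relative to control wells, capped at 0 and 100%. One two-parameter sigmoid per drug and line, fitted in a mixed model over all curves with the slope shared within a line.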

I-BET-762 = compound: CCNC(=O)C[C@@H]1N=C(c2ccc(Cl)cc2)c2cc(OC)ccc2-n2c(C)nnc21 [I-BET-762]; conditions: top dose 20 µM; top dose inferred
Method: as §1

Trametinib = compound: CC(=O)Nc1cccc(-n2c(=O)n(C3CC3)c(=O)c3c(Nc4ccc(I)cc4F)n(C)c(=O)c(C)c32)c1 [Trametinib]; conditions: top dose 1 µM
Method: as §1

AV-951 = compound: COc1cc2nccc(Oc3ccc(NC(=O)Nc4cc(C)on4)c(Cl)c3)c2cc1OC [AV-951]; conditions: top dose 0.128 µM; top dose inferred
Method: as §1

MS-275 = compound: Nc1ccccc1NC(=O)c1ccc(CNC(=O)OCc2cccnc2)cc1 [MS-275]; conditions: top dose 5 µM; top dose inferred
Method: as §1

KIN001-244 = compound: O=C(NC(COc1ccc2[nH]c(=O)[nH]c2c1)c1ccccc1)c1cccn(Cc2ccc(F)c(F)c2)c1=O [KIN001-244]; conditions: top dose 20 µM; top dose inferred
Method: as §1

HG-6-64-1 = compound: CCN1CCN(Cc2ccc(NC(=O)c3ccc(C)c(/C=C/c4cnc5[nH]ccc5c4OC)c3)cc2C(F)(F)F)CC1 [HG-6-64-1]; conditions: top dose 5.12 µM; top dose inferred
Method: as §1

| Cell Line | AUC (PF-4708671) | IC50 (PF-4708671) [µM] | AUC (I-BET-762) | IC50 (I-BET-762) [µM] | AUC (Trametinib) | IC50 (Trametinib) [µM] | AUC (AV-951) | IC50 (AV-951) [µM] | AUC (MS-275) | IC50 (MS-275) [µM] | AUC (KIN001-244) | IC50 (KIN001-244) [µM] | AUC (HG-6-64-1) | IC50 (HG-6-64-1) [µM] |
| --- | --- | --- | --- | --- | --- | --- | --- | --- | --- | --- | --- | --- | --- | --- |
| KU812 (chronic myeloid leukaemia, suspension) | 0.931 | > 10 | 0.284 | 0.327 | 0.109 | 0.00394 | 0.984 | > 0.128 | 0.764 | 1.66 | 0.134 | 0.102 | 0.34 | 0.12 |
| KURAMOCHI (ovary, adherent) | 0.976 | > 10 | 0.861 | > 20 | 0.878 | > 1 | 0.98 | > 0.128 | 0.714 | 1.4 | 0.908 | > 20 | 0.63 | 0.777 |
| KY821 (leukaemia, suspension) | 0.976 | > 10 | 0.976 | > 20 | 0.89 | 0.893 | 0.992 | > 0.128 | 0.982 | > 5 | 0.962 | > 20 | 0.982 | > 5.12 |
| KYM-1 (rhabdomyosarcoma, adherent) | 0.917 | > 10 | 0.958 | > 20 | 0.935 | > 1 | 0.991 | > 0.128 | 0.981 | > 5 | 0.922 | > 20 | 0.959 | > 5.12 |
| L-428 (Hodgkin lymphoma, suspension) | 0.953 | > 10 | 0.99 | > 20 | 0.992 | > 1 | 0.987 | > 0.128 | 0.832 | 2.67 | 0.949 | > 20 | 0.876 | 4.06 |
| L-540 (Hodgkin lymphoma, suspension) | 0.99 | > 10 | 0.989 | > 20 | 0.986 | > 1 | 0.978 | > 0.128 | 0.753 | 1.51 | 0.891 | 18.9 | 0.763 | 1.65 |
| L-1236 (Hodgkin lymphoma, suspension) | 0.933 | > 10 | 0.814 | 8.83 | 0.991 | > 1 | 0.992 | > 0.128 | 0.599 | 0.558 | 0.924 | > 20 | 0.97 | > 5.12 |
| LAMA-84 (chronic myeloid leukaemia, suspension) | 0.962 | > 10 | 0.546 | 1.67 | 0.934 | > 1 | 0.799 | 0.0625 | 0.624 | 0.689 | 0.703 | 4.72 | 0.147 | 0.0249 |
| LAN-6 (neuroblastoma, adherent) | 0.955 | > 10 | 0.935 | > 20 | 0.644 | 0.17 | 0.963 | > 0.128 | 0.777 | 2.39 | 0.976 | > 20 | 0.972 | > 5.12 |
| LB771-HNC (head and neck, adherent) | 0.966 | > 10 | 0.778 | 10.3 | 0.842 | 0.974 | 0.981 | > 0.128 | 0.884 | > 5 | 0.851 | > 20 | 0.8 | 3.22 |
| LB831-BLC (bladder, adherent) | 0.949 | > 10 | 0.972 | > 20 | 0.937 | > 1 | 0.981 | > 0.128 | 0.779 | 2.07 | 0.889 | > 20 | 0.618 | 0.68 |
| LB996-RCC (kidney, adherent) | 0.868 | > 10 | 0.977 | > 20 | 0.736 | 0.335 | 0.982 | > 0.128 | 0.69 | 1.17 | 0.922 | > 20 | 0.614 | 0.693 |
| LB1047-RCC (kidney, adherent) | 0.939 | > 10 | 0.98 | > 20 | 0.485 | 0.0566 | 0.977 | > 0.128 | 0.698 | 1.22 | 0.865 | > 20 | 0.678 | 1.08 |
| LB2241-RCC (kidney, adherent) | 0.838 | 7.97 | 0.971 | > 20 | 0.372 | 0.0266 | 0.983 | > 0.128 | 0.7 | 1.23 | 0.973 | > 20 | 0.749 | 1.83 |
| LB2518-MEL (melanoma, adherent) | 0.987 | > 10 | 0.982 | > 20 | 0.094 | < 0.00391 | 0.987 | > 0.128 | 0.674 | 0.981 | 0.917 | > 20 | 0.851 | 4.26 |
| LC4-1 (lymphoblastic leukaemia, suspension) | 0.964 | > 10 | 0.596 | 2.37 | 0.929 | > 1 | 0.966 | > 0.128 | 0.673 | 1 | 0.647 | 3.34 | 0.826 | 3.54 |
| LC-2-ad (lung adenocarcinoma, adherent) | 0.974 | > 10 | 0.862 | 17.8 | 0.755 | 0.347 | 0.954 | > 0.128 | 0.591 | 0.559 | 0.821 | 12 | 0.247 | 0.0586 |
| LNCaP-Clone-FGC (prostate, adherent) | 0.955 | > 10 | 0.611 | 2.64 | 0.981 | > 1 | 0.973 | > 0.128 | 0.904 | > 5 | 0.916 | > 20 | 0.968 | > 5.12 |

The IC50 comes from the fitted curve, where viability falls to half of the control; where the fit passes the top or lowest dose, that dose stands as a limit. For AUC the same curve is integrated over the 256-fold range of doses and scaled to a fraction: 1 means no effect, lower means more sensitive. For part of these data: The top dose, if marked as inferred, comes from the curve model; the source does not state it.
